No constants are given. Whether binding was seen depends on the method and setting. In cells and extracts the contact can be indirect. Some results given as binding are weak or reduced against the parent protein; the word gives no strength.
Assays:
[1] = molecular target: GFP-tagged TopBP1 wild-type (UniProt Q92547); test: co-IP; pull-down of GFP-tagged TopBP1 or BLM constructs (GFP-Trap agarose) from lysates of transiently transfected 293FT cells, 24 hr after transfection; also cells synchronized in S phase (Figure S3A); Benzonase-treated lysate, 200 mM NaCl, 2 mM EDTA, 4°C; western blot
[2] = molecular target: GFP-tagged BLM S304A (human) (UniProt P54132); test: co-IP; pull-down of GFP-BLM proteins from U2OS cells stably expressing them; western blot
[3] = molecular target: GFP-tagged wild-type BLM (human) (UniProt P54132); test: as above
[4] = molecular target: GFP-tagged wild-type BLM (human) (UniProt P54132); test: co-IP; pull-down of GFP-tagged TopBP1 or BLM constructs (GFP-Trap agarose) from lysates of transiently transfected 293FT cells, 24 hr after transfection; also cells synchronized in S phase (Figure S3A); Benzonase-treated lysate, 200 mM NaCl, 2 mM EDTA, 4°C; western blot
[5] = molecular target: GFP-tagged BLM lacking the N-terminal 132 residues (human) (UniProt P54132); test: as above

By UniProt entry, the sequences of proteins in these tests, tags left out. Where a name states a change or a piece, a line headed by the entry shows the natural chain unless it says otherwise. Chains listed by the source or under a name are the forms on record and can include a tag or linker. Residues count along the entry.
UniProt Q92547: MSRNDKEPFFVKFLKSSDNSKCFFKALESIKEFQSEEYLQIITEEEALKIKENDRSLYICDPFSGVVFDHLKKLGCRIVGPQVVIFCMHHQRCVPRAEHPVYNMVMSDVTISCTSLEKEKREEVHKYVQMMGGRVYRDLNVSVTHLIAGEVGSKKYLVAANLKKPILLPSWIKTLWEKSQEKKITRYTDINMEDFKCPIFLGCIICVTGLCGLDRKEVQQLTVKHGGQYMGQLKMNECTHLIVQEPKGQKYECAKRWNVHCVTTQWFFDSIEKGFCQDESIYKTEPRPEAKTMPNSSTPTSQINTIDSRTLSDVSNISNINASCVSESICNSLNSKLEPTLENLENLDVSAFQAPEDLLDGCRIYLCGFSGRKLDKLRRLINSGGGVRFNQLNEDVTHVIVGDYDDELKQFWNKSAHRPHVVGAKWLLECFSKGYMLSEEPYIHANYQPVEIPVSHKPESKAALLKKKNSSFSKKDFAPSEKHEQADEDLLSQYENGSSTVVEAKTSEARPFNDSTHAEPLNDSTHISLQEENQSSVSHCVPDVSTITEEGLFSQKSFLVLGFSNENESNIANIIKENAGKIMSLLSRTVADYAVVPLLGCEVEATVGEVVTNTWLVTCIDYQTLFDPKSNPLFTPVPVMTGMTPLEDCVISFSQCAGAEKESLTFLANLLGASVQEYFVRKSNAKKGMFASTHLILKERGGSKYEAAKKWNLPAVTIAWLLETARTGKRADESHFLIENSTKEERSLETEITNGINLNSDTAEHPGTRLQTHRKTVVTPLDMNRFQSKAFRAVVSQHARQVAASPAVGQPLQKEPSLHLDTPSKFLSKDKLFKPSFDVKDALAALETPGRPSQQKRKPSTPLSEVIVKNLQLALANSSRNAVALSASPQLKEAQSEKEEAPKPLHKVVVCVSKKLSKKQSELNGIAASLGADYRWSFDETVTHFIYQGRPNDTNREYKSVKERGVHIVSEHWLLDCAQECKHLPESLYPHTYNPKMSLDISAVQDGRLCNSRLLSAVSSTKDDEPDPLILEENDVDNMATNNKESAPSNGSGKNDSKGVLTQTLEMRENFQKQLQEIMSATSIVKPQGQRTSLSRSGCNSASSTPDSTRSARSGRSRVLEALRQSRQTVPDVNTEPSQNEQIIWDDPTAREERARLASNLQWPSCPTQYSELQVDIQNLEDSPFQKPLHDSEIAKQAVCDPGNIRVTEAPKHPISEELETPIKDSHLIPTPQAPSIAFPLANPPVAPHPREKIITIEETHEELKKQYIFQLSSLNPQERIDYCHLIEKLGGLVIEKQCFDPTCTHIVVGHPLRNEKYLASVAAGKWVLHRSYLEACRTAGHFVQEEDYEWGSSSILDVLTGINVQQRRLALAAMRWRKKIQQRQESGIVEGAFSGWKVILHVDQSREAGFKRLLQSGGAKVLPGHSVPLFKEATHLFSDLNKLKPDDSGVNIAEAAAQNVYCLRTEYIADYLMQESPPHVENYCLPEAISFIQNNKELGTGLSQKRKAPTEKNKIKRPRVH
UniProt P54132: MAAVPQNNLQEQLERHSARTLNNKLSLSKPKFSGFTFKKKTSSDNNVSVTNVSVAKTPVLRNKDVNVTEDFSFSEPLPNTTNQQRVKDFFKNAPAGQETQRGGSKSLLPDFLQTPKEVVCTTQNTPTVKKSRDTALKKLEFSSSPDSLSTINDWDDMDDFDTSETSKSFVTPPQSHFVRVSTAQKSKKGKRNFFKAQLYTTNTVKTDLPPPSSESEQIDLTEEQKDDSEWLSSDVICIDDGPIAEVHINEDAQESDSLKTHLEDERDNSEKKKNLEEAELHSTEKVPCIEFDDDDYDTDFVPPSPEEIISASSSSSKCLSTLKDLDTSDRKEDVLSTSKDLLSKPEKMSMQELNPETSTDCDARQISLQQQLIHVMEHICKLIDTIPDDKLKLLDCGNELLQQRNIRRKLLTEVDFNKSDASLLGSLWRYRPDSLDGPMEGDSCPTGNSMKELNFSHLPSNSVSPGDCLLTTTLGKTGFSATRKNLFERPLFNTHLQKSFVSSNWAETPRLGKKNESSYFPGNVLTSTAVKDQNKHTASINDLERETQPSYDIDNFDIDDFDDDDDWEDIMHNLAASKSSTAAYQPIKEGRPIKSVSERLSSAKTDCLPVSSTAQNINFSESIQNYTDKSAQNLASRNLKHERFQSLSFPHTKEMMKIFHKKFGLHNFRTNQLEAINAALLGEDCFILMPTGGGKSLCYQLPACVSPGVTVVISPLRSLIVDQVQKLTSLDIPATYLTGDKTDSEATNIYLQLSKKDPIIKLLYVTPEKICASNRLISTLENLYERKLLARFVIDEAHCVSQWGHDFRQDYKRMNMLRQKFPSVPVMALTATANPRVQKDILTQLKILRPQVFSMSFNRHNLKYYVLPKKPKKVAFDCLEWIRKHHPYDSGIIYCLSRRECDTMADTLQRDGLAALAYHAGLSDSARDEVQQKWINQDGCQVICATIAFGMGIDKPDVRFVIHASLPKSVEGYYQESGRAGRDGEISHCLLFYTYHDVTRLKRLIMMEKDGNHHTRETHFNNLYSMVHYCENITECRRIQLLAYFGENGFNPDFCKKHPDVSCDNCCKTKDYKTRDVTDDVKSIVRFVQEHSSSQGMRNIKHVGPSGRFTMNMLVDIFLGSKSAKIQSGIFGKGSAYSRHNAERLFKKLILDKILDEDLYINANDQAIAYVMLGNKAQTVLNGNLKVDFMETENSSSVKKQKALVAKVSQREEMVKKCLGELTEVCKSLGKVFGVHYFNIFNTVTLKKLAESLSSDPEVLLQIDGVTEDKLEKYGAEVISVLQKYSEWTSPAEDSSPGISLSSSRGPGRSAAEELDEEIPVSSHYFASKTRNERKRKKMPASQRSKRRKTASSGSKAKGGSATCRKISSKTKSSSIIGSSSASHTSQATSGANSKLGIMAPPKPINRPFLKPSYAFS
GFP-tagged BLM lacking the N-terminal 132 residues: residues 133-1417 of P54132

binding [1]	binding [2]	binding [3]	binding [4]	binding [5]	Binder
binds					topoisomerase IIIα (TOP3A) (protein, UniProt Q13472 1-1001) MIFPVARYALRWLRRPEDRAFSRAAMEMALRGVRKVLCVAEKNDAAKGIADLLSNGRMRRREGLSKFNKIYEFDYHLYGQNVTMVMTSVSGHLLAHDFQMQFRKWQSCNPLVLFEAEIEKYCPENFVDIKKTLERETRQCQALVIWTDCDREGENIGFEIIHVCKAVKPNLQVLRARFSEITPHAVRTACENLTEPDQRVSDAVDVRQELDLRIGAAFTRFQTLRLQRIFPEVLAEQLISYGSCQFPTLGFVVERFKAIQAFVPEIFHRIKVTHDHKDGIVEFNWKRHRLFNHTACLVLYQLCVEDPMATVVEVRSKPKSKWRPQALDTVELEKLASRKLRINAKETMRIAEKLYTQGYISYPRTETNIFPRDLNLTVLVEQQTPDPRWGAFAQSILERGGPTPRNGNKSDQAHPPIHPTKYTNNLQGDEQRLYEFIVRHFLACCSQDAQGQETTVEIDIAQERFVAHGLMILARNYLDVYPYDHWSDKILPVYEQGSHFQPSTVEMVDGETSPPKLLTEADLIALMEKHGIGTDATHAEHIETIKARMYVGLTPDKRFLPGHLGMGLVEGYDSMGYEMSKPDLRAELEADLKLICDGKKDKFVVLRQQVQKYKQVFIEAVAKAKKLDEALAQYFGNGTELAQQEDIYPAMPEPIRKCPQCNKDMVLKTKKNGGFYLSCMGFPECRSAVWLPDSVLEASRDSSVCPVCQPHPVYRLKLKFKRGSLPPTMPLEFVCCIGGCDDTLREILDLRFSGGPPRASQPSGRLQANQSLNRMDNSQHPQPADSRQTGSSKALAQTLPPPTAAGESNSVTCNCGQEAVLLTVRKEGPNRGRQFFKCNGGSCNFFLWADSPNPGAGGPPALAYRPLGASLGCPPGPGIHLGGFGNPGDGSGSGTSCLCSQPSVTRTVQKDGPNKGRQFHTCAKPREQQCGFFQWVDENTAPGTSGAPSWTGDRGRTLESEARSKRPRASSSDMGSTAKKPRKCSLCHQPGHTRPFCPQNR
binds	binds	binds	binds	no binding	RMI2 (protein, UniProt Q96E14 1-147) MAAAADSFSGGPAGVRLPRSPPLKVLAEQLRRDAEGGPGAWRLSRAAAGRGPLDLAAVWMQGRVVMADRGEARLRDPSGDFSVRGLERVPRGRPCLVPGKYVMVMGVVQACSPEPCLQAVKMTDLSDNPIHESMWELEVEDLHRNIP
binds					RMI1 (protein, UniProt Q9H9A7 1-625) MNVTSIALRAETWLLAAWHVKVPPMWLEACINWIQEENNNVNLSQAQMNKQVFEQWLLTDLRDLEHPLLPDGILEIPKGELNGFYALQINSLVDVSQPAYSQIQKLRGKNTTNDLVTAEAQVTPKPWEAKPSRMLMLQLTDGIVQIQGMEYQPIPILHSDLPPGTKILIYGNISFRLGVLLLKPENVKVLGGEVDALLEEYAQEKVLARLIGEPDLVVSVIPNNSNENIPRVTDVLDPALGPSDEELLASLDENDELTANNDTSSERCFTTGSSSNTIPTRQSSFEPEFVISPRPKEEPSNLSIHVMDGELDDFSLEEALLLEETVQKEQMETKELQPLTFNRNADRSIERFSHNPNTTNNFSLTCKNGNNNWSEKNVSEQMTNEDKSFGCPSVRDQNRSIFSVHCNVPLAHDFTNKEKNLETDNKIKQTSSSDSHSLNNKILNREVVNYVQKRNSQISNENDCNLQSCSLRSSENSINLSIAMDLYSPPFVYLSVLMASKPKEVTTVKVKAFIVTLTGNLSSSGGIWSITAKVSDGTAYLDVDFVDEILTSLIGFSVPEMKQSKKDPLQYQKFLEGLQKCQRDLIDLCCLMTISFNPSLSKAMVLALQDVNMEHLENLKKRLNK

From publication PMC4374139
